{
  "source": "the antibiotic and cytotoxicity screens of Wong et al. (2023)",
  "note": "This is one part of the list.",
  "data": [
    {"tested_on": "HepG2", "test": "cytotoxicity call (relative viability < 0.9)", "conditions": "10 µM", "values": [
      {"smiles": "O=C1OC(c2ccc(O)cc2)(c2ccc(O)cc2)c2ccccc21", "cytotoxicity call": "inactive"},
      {"smiles": "Cc1noc(C)c1NC(=O)N(C)C[C@H]1Oc2ccc(NS(C)(=O)=O)cc2CC(=O)N([C@H](C)CO)C[C@@H]1C", "cytotoxicity call": "inactive"},
      {"smiles": "C[C@@H]1CN([C@H](C)CO)C(=O)c2cccc(NC(=O)c3nc4ccccc4s3)c2O[C@H]1CN(C)Cc1ccc(-c2ccccc2)cc1", "cytotoxicity call": "inactive"},
      {"smiles": "COc1cccc(S(=O)(=O)N(C)C[C@@H]2Oc3cc(C#CCC(C)C)ccc3S(=O)(=O)N([C@@H](C)CO)C[C@H]2C)c1", "cytotoxicity call": "inactive"},
      {"smiles": "C[C@H]1CN([C@@H](C)CO)C(=O)c2cc(NS(=O)(=O)c3cccs3)ccc2O[C@H]1CN(C)S(=O)(=O)c1ccc(F)cc1", "cytotoxicity call": "inactive"},
      {"smiles": "C[C@H]1CN([C@@H](C)CO)C(=O)Cc2cc(NC(=O)Nc3cccc4ccccc34)ccc2O[C@H]1CN(C)Cc1ccc(-c2ccccc2)cc1", "cytotoxicity call": "inactive"},
      {"smiles": "Cc1noc(C)c1NC(=O)Nc1ccc2c(c1)C(=O)N([C@H](C)CO)C[C@H](C)[C@H](CN(C)Cc1ccc(C(=O)O)cc1)OCCCC[C@H](C)O2", "cytotoxicity call": "inactive"},
      {"smiles": "Cc1noc(C)c1S(=O)(=O)N(C)C[C@H]1OCCCC[C@@H](C)Oc2ccc(NC(=O)Nc3cccc4ccccc34)cc2C(=O)N([C@@H](C)CO)C[C@H]1C", "cytotoxicity call": "inactive"},
      {"smiles": "CC1(C)OC(=O)C2(C(=O)O1)[C@@H](c1ccc(-c3ccc(-c4ccc(O)cc4)cc3)cc1)CC(=O)C[C@H]2c1ccccc1", "cytotoxicity call": "inactive"},
      {"smiles": "Clc1ccc(-c2cc[nH]n2)cc1", "cytotoxicity call": "inactive"},
      {"smiles": "C[C@H]1CN([C@@H](C)CO)C(=O)c2cc(NS(=O)(=O)c3ccc(F)cc3)ccc2O[C@@H]1CN(C)S(=O)(=O)c1ccc(F)cc1", "cytotoxicity call": "inactive"},
      {"smiles": "CC(=O)N(C)C[C@H]1Oc2cc(C#CCN(C)C)ccc2S(=O)(=O)N([C@H](C)CO)C[C@H]1C", "cytotoxicity call": "inactive"},
      {"smiles": "Cc1noc(C)c1NC(=O)N(C)C[C@H]1Oc2c(NC(=O)Nc3cccc4ccccc34)cccc2C(=O)N([C@@H](C)CO)C[C@@H]1C", "cytotoxicity call": "inactive"},
      {"smiles": "COc1ccccc1CNC(=O)C[C@@H]1CC[C@H]2[C@@H](COC[C@H](O)CN2S(=O)(=O)c2ccc(C)cc2)O1", "cytotoxicity call": "inactive"},
      {"smiles": "CNC(=O)CN(C#N)c1nc(C)cc(C)n1", "cytotoxicity call": "inactive"},
      {"smiles": "C[C@H](CO)N1C[C@H](C)[C@H](CN(C)S(=O)(=O)c2cn(C)cn2)OCCCC[C@H](C)Oc2ccc(NS(=O)(=O)c3cccs3)cc2C1=O", "cytotoxicity call": "inactive"},
      {"smiles": "O=C(C[C@H]1CC[C@H](NC(=O)c2cnccn2)[C@@H](CO)O1)NCc1ccccc1F", "cytotoxicity call": "inactive"},
      {"smiles": "C[C@@H]1CCCCO[C@@H](CN(C)Cc2ccccc2)[C@@H](C)CN([C@@H](C)CO)C(=O)c2cc(NC(=O)Nc3cccc4ccccc34)ccc2O1", "cytotoxicity call": "inactive"},
      {"smiles": "COc1ccc(C#Cc2cnc3c(c2)C(=O)N([C@@H](C)CO)C[C@@H](C)[C@@H](CN(C)CC2CCOCC2)O3)cc1", "cytotoxicity call": "inactive"},
      {"smiles": "C[C@H](CO)N1C[C@H](C)[C@H](CN(C)C(=O)Cc2cccnc2)Oc2cc(-c3cncnc3)ccc2S1(=O)=O", "cytotoxicity call": "inactive"},
      {"smiles": "Cc1ccc(S(=O)(=O)N(C)C[C@@H]2OCCCC[C@H](C)Oc3ccc(NC(=O)Nc4ccc5c(c4)OCO5)cc3C(=O)N([C@H](C)CO)C[C@@H]2C)cc1", "cytotoxicity call": "inactive"},
      {"smiles": "CO[C@@H]1CN(C)C(=O)c2cc(NC(=O)C3CCOCC3)ccc2OC[C@H](C)N(Cc2cccnc2)C[C@H]1C", "cytotoxicity call": "inactive"},
      {"smiles": "C[C@H]1CC/C=C\\[C@H]2O[C@@]34C=CCN(c5ccc6ccccc6c5)C(=O)[C@H]3N(CCCO)C(=O)[C@@H]4[C@@H]2C(=O)O1", "cytotoxicity call": "inactive"},
      {"smiles": "C[C@H](CO)N1C[C@H](C)[C@H](CN(C)S(C)(=O)=O)Oc2c(NC(=O)c3ccc(-c4nccs4)cc3)cccc2C1=O", "cytotoxicity call": "inactive"},
      {"smiles": "CN1C(=O)c2cc(NC(=O)c3cnccn3)ccc2OC[C@@H]2O[C@H](CC(=O)N[C@@H]3CCN(Cc4ccccc4)C3)CC[C@@H]21", "cytotoxicity call": "inactive"},
      {"smiles": "C[C@@H]1CN([C@@H](C)CO)S(=O)(=O)c2ccc(-c3ccc(F)cc3)cc2O[C@@H]1CN(C)S(C)(=O)=O", "cytotoxicity call": "inactive"},
      {"smiles": "C[C@H]1CN([C@@H](C)CO)C(=O)c2cccc(NC(=O)Nc3ccc(F)cc3)c2O[C@H]1CN(C)Cc1ccc(Cl)c(Cl)c1", "cytotoxicity call": "inactive"}
    ]},
    {"tested_on": "S. aureus RN4220", "test": "growth inhibition call (relative growth <= 0.2)", "conditions": "50 µM", "values": [
      {"smiles": "C[C@@H]1CCCCO[C@H](CN(C)S(=O)(=O)c2cccs2)[C@H](C)CN([C@H](C)CO)C(=O)c2cc(NC(=O)Cc3ccccc3)ccc2O1", "growth inhibition call": "inactive"},
      {"smiles": "CS(=O)(=O)N1C[C@H]2CN(C(=O)c3cnccn3)C[C@@H]2C1", "growth inhibition call": "inactive"},
      {"smiles": "CC(C)C[C@H](NC(=O)CNC(=O)c1cc(Cl)ccc1Cl)B1OC(=O)C[C@](CC(=O)O)(C(=O)O)O1", "growth inhibition call": "inactive"},
      {"smiles": "C[C@@H]1CCCCO[C@@H](CN(C)Cc2ccc(C(=O)O)cc2)[C@H](C)CN([C@H](C)CO)C(=O)c2cc(NS(=O)(=O)c3ccc(Cl)cc3)ccc2O1", "growth inhibition call": "inactive"},
      {"smiles": "CC(=O)N1CCn2nncc2C[C@@]1(C)C1CC1", "growth inhibition call": "inactive"},
      {"smiles": "CN(C)C(=O)C[C@@H]1C=C[C@@H](NC(=O)C2CC2)[C@H](CO)O1", "growth inhibition call": "inactive"},
      {"smiles": "CC(C)NC(=O)N[C@@H]1C=C[C@@H](CC(=O)NCCCN(C)C)O[C@@H]1CO", "growth inhibition call": "inactive"},
      {"smiles": "COc1cnc(-n2cnc(C)n2)c2c1c(C(=O)C(=O)N1CCN(C(=O)c3ccccc3)CC1)cn2COP(=O)(O)O", "growth inhibition call": "inactive"},
      {"smiles": "C[C@@H]1CN([C@@H](C)CO)C(=O)c2cc(C#CC3(O)CCCC3)cnc2O[C@@H]1CN(C)C(=O)C1CCCCC1", "growth inhibition call": "inactive"},
      {"smiles": "CCn1cc(C(=O)O)c(=O)c2cc(F)c(N3CCNC(C)C3)c(F)c21.Cl", "note": "(configuration not stated)", "growth inhibition call": "active"},
      {"smiles": "COc1cccc(S(=O)(=O)N[C@H]2CC[C@@H](CC(=O)NC3CCC3)O[C@H]2CO)c1", "growth inhibition call": "inactive"},
      {"smiles": "O=C(C[C@H]1C[C@@H]2c3cc(NS(=O)(=O)c4ccc(F)cc4)ccc3O[C@@H]2[C@H](CO)O1)NC1CCCC1", "growth inhibition call": "inactive"},
      {"smiles": "C[C@H]1CN([C@@H](C)CO)C(=O)c2ccccc2-c2ccccc2CO[C@H]1CN(C)Cc1ccc(C(F)(F)F)cc1", "growth inhibition call": "inactive"},
      {"smiles": "O=C1OC(c2ccc(O)cc2)(c2ccc(O)cc2)c2ccccc21", "growth inhibition call": "inactive"},
      {"smiles": "Cc1noc(C)c1NC(=O)N(C)C[C@H]1Oc2ccc(NS(C)(=O)=O)cc2CC(=O)N([C@H](C)CO)C[C@@H]1C", "growth inhibition call": "inactive"},
      {"smiles": "C[C@@H]1CN([C@H](C)CO)C(=O)c2cccc(NC(=O)c3nc4ccccc4s3)c2O[C@H]1CN(C)Cc1ccc(-c2ccccc2)cc1", "growth inhibition call": "inactive"},
      {"smiles": "COc1cccc(S(=O)(=O)N(C)C[C@@H]2Oc3cc(C#CCC(C)C)ccc3S(=O)(=O)N([C@@H](C)CO)C[C@H]2C)c1", "growth inhibition call": "inactive"},
      {"smiles": "C[C@H]1CN([C@@H](C)CO)C(=O)c2cc(NS(=O)(=O)c3cccs3)ccc2O[C@H]1CN(C)S(=O)(=O)c1ccc(F)cc1", "growth inhibition call": "inactive"},
      {"smiles": "C[C@H]1CN([C@@H](C)CO)C(=O)Cc2cc(NC(=O)Nc3cccc4ccccc34)ccc2O[C@H]1CN(C)Cc1ccc(-c2ccccc2)cc1", "growth inhibition call": "inactive"},
      {"smiles": "Cc1noc(C)c1NC(=O)Nc1ccc2c(c1)C(=O)N([C@H](C)CO)C[C@H](C)[C@H](CN(C)Cc1ccc(C(=O)O)cc1)OCCCC[C@H](C)O2", "growth inhibition call": "inactive"},
      {"smiles": "Cc1noc(C)c1S(=O)(=O)N(C)C[C@H]1OCCCC[C@@H](C)Oc2ccc(NC(=O)Nc3cccc4ccccc34)cc2C(=O)N([C@@H](C)CO)C[C@H]1C", "growth inhibition call": "inactive"},
      {"smiles": "CC1(C)OC(=O)C2(C(=O)O1)[C@@H](c1ccc(-c3ccc(-c4ccc(O)cc4)cc3)cc1)CC(=O)C[C@H]2c1ccccc1", "growth inhibition call": "inactive"},
      {"smiles": "Clc1ccc(-c2cc[nH]n2)cc1", "growth inhibition call": "inactive"},
      {"smiles": "C[C@H]1CN([C@@H](C)CO)C(=O)c2cc(NS(=O)(=O)c3ccc(F)cc3)ccc2O[C@@H]1CN(C)S(=O)(=O)c1ccc(F)cc1", "growth inhibition call": "inactive"},
      {"smiles": "CC(=O)N(C)C[C@H]1Oc2cc(C#CCN(C)C)ccc2S(=O)(=O)N([C@H](C)CO)C[C@H]1C", "growth inhibition call": "inactive"},
      {"smiles": "Cc1noc(C)c1NC(=O)N(C)C[C@H]1Oc2c(NC(=O)Nc3cccc4ccccc34)cccc2C(=O)N([C@@H](C)CO)C[C@@H]1C", "growth inhibition call": "inactive"},
      {"smiles": "COc1ccccc1CNC(=O)C[C@@H]1CC[C@H]2[C@@H](COC[C@H](O)CN2S(=O)(=O)c2ccc(C)cc2)O1", "growth inhibition call": "inactive"},
      {"smiles": "CNC(=O)CN(C#N)c1nc(C)cc(C)n1", "growth inhibition call": "inactive"},
      {"smiles": "C[C@H](CO)N1C[C@H](C)[C@H](CN(C)S(=O)(=O)c2cn(C)cn2)OCCCC[C@H](C)Oc2ccc(NS(=O)(=O)c3cccs3)cc2C1=O", "growth inhibition call": "inactive"},
      {"smiles": "O=C(C[C@H]1CC[C@H](NC(=O)c2cnccn2)[C@@H](CO)O1)NCc1ccccc1F", "growth inhibition call": "inactive"},
      {"smiles": "C[C@@H]1CCCCO[C@@H](CN(C)Cc2ccccc2)[C@@H](C)CN([C@@H](C)CO)C(=O)c2cc(NC(=O)Nc3cccc4ccccc34)ccc2O1", "growth inhibition call": "inactive"},
      {"smiles": "COc1ccc(C#Cc2cnc3c(c2)C(=O)N([C@@H](C)CO)C[C@@H](C)[C@@H](CN(C)CC2CCOCC2)O3)cc1", "growth inhibition call": "inactive"},
      {"smiles": "C[C@H](CO)N1C[C@H](C)[C@H](CN(C)C(=O)Cc2cccnc2)Oc2cc(-c3cncnc3)ccc2S1(=O)=O", "growth inhibition call": "inactive"},
      {"smiles": "Cc1ccc(S(=O)(=O)N(C)C[C@@H]2OCCCC[C@H](C)Oc3ccc(NC(=O)Nc4ccc5c(c4)OCO5)cc3C(=O)N([C@H](C)CO)C[C@@H]2C)cc1", "growth inhibition call": "inactive"},
      {"smiles": "CO[C@@H]1CN(C)C(=O)c2cc(NC(=O)C3CCOCC3)ccc2OC[C@H](C)N(Cc2cccnc2)C[C@H]1C", "growth inhibition call": "inactive"},
      {"smiles": "C[C@H]1CC/C=C\\[C@H]2O[C@@]34C=CCN(c5ccc6ccccc6c5)C(=O)[C@H]3N(CCCO)C(=O)[C@@H]4[C@@H]2C(=O)O1", "growth inhibition call": "inactive"},
      {"smiles": "C[C@H](CO)N1C[C@H](C)[C@H](CN(C)S(C)(=O)=O)Oc2c(NC(=O)c3ccc(-c4nccs4)cc3)cccc2C1=O", "growth inhibition call": "inactive"},
      {"smiles": "CN1C(=O)c2cc(NC(=O)c3cnccn3)ccc2OC[C@@H]2O[C@H](CC(=O)N[C@@H]3CCN(Cc4ccccc4)C3)CC[C@@H]21", "growth inhibition call": "inactive"},
      {"smiles": "C[C@@H]1CN([C@@H](C)CO)S(=O)(=O)c2ccc(-c3ccc(F)cc3)cc2O[C@@H]1CN(C)S(C)(=O)=O", "growth inhibition call": "inactive"},
      {"smiles": "C[C@H]1CN([C@@H](C)CO)C(=O)c2cccc(NC(=O)Nc3ccc(F)cc3)c2O[C@H]1CN(C)Cc1ccc(Cl)c(Cl)c1", "growth inhibition call": "inactive"}
    ]}
  ]
}
